# Test results taken from the supplement of paper PMC3334620.
# Whole data set: some 33,000 sequences, median “E-score (-0.5 to 0.5)” near -0.04, cut for the highest 2% near 0.36. The list shows a part of the results.
# Biological target: T1, Hmlalpha2 (UniProt P0CY09)
# T1 sequence: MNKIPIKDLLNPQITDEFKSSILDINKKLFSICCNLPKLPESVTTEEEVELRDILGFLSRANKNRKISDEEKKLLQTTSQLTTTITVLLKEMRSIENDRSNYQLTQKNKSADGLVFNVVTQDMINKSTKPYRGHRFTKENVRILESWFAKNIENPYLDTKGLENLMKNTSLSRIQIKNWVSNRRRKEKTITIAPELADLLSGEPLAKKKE
# Assay: PBM E-score (8-mer binding enrichment) (E-score (-0.5 to 0.5)); higher = stronger / more preferred TF binding; most listed sequences are background and not binding sites
# Details: protein concentration: 200 nM; construct: GST-full length
# In short: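 Using PURExpress in vitro transcription/translation, GST-tagged yeast transcription factors were made in full-length or DNA-binding-domain form. These were applied at about 100-200 nM to double-stranded universal all-10-mer Agilent arrays, and bound protein was detected with fluorescent anti-GST. Scans were normalised with masliner before the Universal PBM Analysis Suite assigned E-scores to ungapped eight-base words pooled with their reverse complements.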
row,Sequence,PBM E-score
1,GAAAAACC,-0.0498
2,AAATTTAC,0.375
3,CGCACTGC,-0.0457
4,CACCGCCA,-0.107
5,CAATTGCC,-0.12
6,GCGTCGCC,0.0305
7,CGGTTCTA,-0.13
8,ATGCCCAC,-0.109
9,CTCCAACC,-0.12
10,CCCCAGGG,-0.397
11,TAGAGAGA,-0.158
12,GTGATAAC,0.212
13,AGAGATGG,0.00818
14,ACAAATCA,0.116
15,GGATCACA,0.0466
16,AAGCCCGG,-0.287
17,AGATACCC,-0.196
18,CGCTCATA,-0.169
19,GACGAATC,0.0541
20,AGTAACAG,0.0731
21,ACATGAGC,0.335
22,GAACGATA,-0.104
23,ACCTCTGG,-0.183
24,CAGACCCC,-0.279
25,AAACCCTA,-0.0109

row,Sequence,PBM E-score
1,CAAAAACG,0.109
2,CTCGAAAA,-0.0219
3,CGGGGGCA,-0.292
4,CAACCAAG,0.0194
5,CCTTAGTA,-0.0554
6,CAACGACA,0.182
7,AACTCCGC,-0.135
8,CAGACCTA,-0.0166
9,CGGAGCAC,-0.16
10,ATCCTACA,0.0889
11,CGCAAGGC,-0.06
12,ATCATGCG,-0.0811
13,CGCGGGTC,0.0398
14,ATTCAAAG,0.0343
15,CGTAACAG,0.19
16,ACGGGGAG,-0.235
17,TGGTTGAA,-0.00825
18,GGCTAAAC,0.0125
19,GATAAATA,0.121
20,ATGATCCC,-0.241
21,CACCGAAG,-0.0848
22,AACGTCAC,0.00799
23,GGATTATA,-0.105
24,GGGCGCAA,0.00447
25,AAATTCAC,0.107

row,Sequence,PBM E-score
1,AGTTCGAG,0.0484
2,AATCCCCG,-0.16
3,ATCCGGGC,-0.318
4,TAAGTCGA,-0.0631
5,GTTCGATA,0.118
6,AGGCCCCC,-0.305
7,ACGTGAGA,0.0567
8,ACTTATGA,-0.0223
9,GCTTTTTA,0.0735
10,CTGGATAA,-0.108
11,ACCTTGGA,-0.128
12,AGAGAGTG,-0.159
13,AAAGGTCC,-0.0395
14,CTAGTGTC,-0.0696
15,GTTCTCGA,0.00834
16,AGGACGTG,-0.0262
17,AATTAATT,0.284
18,AGTTCTAA,0.00203
19,CATACGCC,0.0271
20,ACCACGCA,0.106
21,AGTGACTC,-0.191
22,GAGTTGGC,-0.0218
23,AGTAAGGC,-0.106
24,CCGGAAGA,-0.06
25,AACCGACG,-0.0509

row,Sequence,PBM E-score
1,AAACCATC,0.0802
2,CCCCAATA,-0.158
3,CGTTGATA,0.174
4,GGGCCAAA,-0.124
5,ATTCAATC,0.0769
6,GTTCCAGA,-0.102
7,GCAGCAGC,0.0731
8,ACGACGCG,0.302
9,ACGTACAG,0.0878
10,CACTGTGG,-0.147
11,AGGAGATG,-0.157
12,TAGACTAA,-0.0309
13,GCACATCA,-0.0833
14,GAAGGTCC,-0.194
15,GGTCAATA,-0.0809
16,ATGGTTCG,0.106
17,CGATGGGA,-0.232
18,TGGGTTAA,0.186
19,ACGTTACC,0.184
20,GTGTCACA,0.124
21,CCAGGGAA,-0.265
22,ACACCTGG,-0.0725
23,ATTTGCCA,-0.174
24,AGATAACT,-0.0355
25,TCTCACCA,-0.0591

row,Sequence,PBM E-score
1,GCGGATCA,-0.043
2,CATATGCC,-0.196
3,GGTGCGTA,0.281
4,AAAATTTG,0.0975
5,AGCGCTCC,-0.19
6,GGAGCACA,-0.0839
7,ATGGTGTA,0.249
8,CCACAGCA,0.0519
9,CATCTTGC,-0.0141
10,ACCGCAAT,0.0585
11,AACACGCG,0.406
12,ATGCTAAA,0.166
13,CAAAAATC,-0.0271
14,AGCGTAAA,0.22
15,GTAACCGA,0.0834
16,ATGAAGTG,-0.16
17,CTGAGAGA,-0.177
18,ATCAGTGC,-0.0196
19,AAGCTATC,0.0382
20,AAAAGCGT,-0.115
21,CAGGAACG,0.0165
22,ATGTACGA,0.281
23,GTAATTCA,0.346
24,GCCATGAC,-0.186
25,ACGGGTAG,0.123

row,Sequence,PBM E-score
1,CGACAGGC,-0.248
2,ACCTCCAG,-0.157
3,AACCGGAT,0.0919
4,ATGTTCCG,0.061
5,GATCATCC,-0.256
6,CCCGCACC,-0.26
7,ACAATTAG,0.1
8,AGTGACGA,0.0683
9,AGAGACAT,0.00684
10,AGAGTTTA,0.167
11,CACGTCCG,-0.0887
12,GGGGTTAA,-0.118
13,CGGACGGA,-0.198
14,ACCAATCC,-0.147
15,GACACTGA,-0.18
16,CCTTGAAC,0.0776
17,AAACTGGT,-0.0472
18,GTAGCACA,-0.0675
19,GAGTGTAC,0.0265
20,CTCAAATA,-0.131
21,GGTAAGAC,-0.144
22,CTGATTTA,0.107
23,CTTATACA,0.252
24,AGCTGGAT,-0.116
25,ACAAGGCC,0.176

row,Sequence,PBM E-score
1,ATCATGGG,-0.0934
2,AGCGTACA,0.094
3,AGGCCCGG,-0.319
4,CCCCCGAG,-0.419
5,AGAAGTTA,0.177
6,GGGCAACA,-0.131
7,CACAAGCA,0.0703
8,AACTGAGA,0.0995
9,ATTCAAGG,-0.146
10,GATGATAA,0.0849
11,CCCAATCG,-0.265
12,ACCAGCGT,-0.0531
13,ATACTAGG,0.00454
14,AAAAGGTG,-0.00979
15,AAGGGCCC,-0.209
16,ATCACGCG,0.144
17,TAGCACCA,-0.111
18,CGCAACTC,-0.00762
19,GCGAGTCA,-0.0741
20,AGGTTAGG,-0.2
21,AACAAAAA,0.125
22,ACCCAGGT,-0.29
